Several values for one entry are separate records, joined by “and”; a condition that tells them apart may be missing. Equal entries are not always repeated. Some of the results follow. Further columns of the screen follow, without active or inactive calls. Most of these compounds were active or inconclusive in the main read-out, so they are no random draw.

The nature of this test: qHTS Assay for Lipid Storage Modulators (AID 1519). As to conditions: Drosophila S3 cells, BODIPY lipid droplet/cell ratio, laser cytometry; measured here: lipid channel max response; cells loaded with oleic acid. A digest of the protocol:
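Cells seeded at 5,000 per well were treated with compounds over a concentration series and loaded with oleic acid (400 uM, as added). Lipid droplet fluorescence (488 nm excitation, 500-530 nm channel) was read by laser-scanning cytometry and normalized to 20 uM Triacsin C.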
On the technique in general: qHTS replaces the single test concentration by a dilution series.
Turning to `CC[C@]1(O)CC(O[C@@H]2CC(N(C)C)C(O)C(C)O2)c2c(cc3c(c2O)C(=O)c2c(O)ccc(O)c2C3=O)C1C(=O)OC` (some centres undefined), the max response was -45.7%. Under `O=c1[nH]oc2c1CCNC2` stands 34.4%; under `S=C(NC1CCCCC1)N1CCC(c2cnc[nH]2)CC1`, 156%. Under `C[C@@H](N)Cn1ccc2cc(F)c(Cl)cc21` stands 105%; under `COc1cc2c(cc1OC)[C@@H]1C(=O)c3ccc4c(c3OC1CO2)CC(C(C)C)O4` (some centres undefined), -87.4%. In the case of `CN(C)C(=O)Oc1cccc([N+](C)(C)C)c1`, the max response is 12%. In the case of `Oc1cc2c(cc1O)[C@H]1c3ccccc3CN[C@H]1CC2`, the max response was 56.7%. Under `C=CC1CN2CCC1CC2C(O)c1ccnc2ccccc12` (centres undefined) stands 32.3%; under `C/C(=C\C=C/[C@@H](C)C(=O)O)[C@H]1CN[C@H](C(=O)O)[C@@H]1CC(=O)O`, 34.6%; under `COc1ccc(CC2NCC(O)C2OC(C)=O)cc1` (centres undefined), -6.61%. In the case of `COc1cc2c(cc1O)-c1c(O)c(OC)cc3c1[C@H](C2)N(C)CC3` it was 81.8%; in that of `Cn1c(=O)c2[nH]cnc2n(C)c1=O`, -4.53%.

With `CCCCCCC[n+]1ccc(-c2cc[n+](CCCCCCC)cc2)cc1`, the max response was -49.9%. With `NP(N)(=O)NC(=O)c1ccc(F)cc1`, the max response stood at 9.99%. Under `CN1Cc2ccccc2[C@@H]2c3cccc4[nH]cc(c34)C[C@H]21` stands -0.504%. Consider `NC(=O)CN1CCCC1=O`, for which the max response came to 20.9%. Under `CC1=C(O)C(=O)C=C2C1=CC=C1[C@]2(C)CC[C@@]2(C)C3C[C@](C)(C(=O)O)CC[C@@]3(C)CC[C@@]12C` (some centres undefined) stands -55.8%; under `CC1=C(O)C(=O)[C@H]2O[C@@H]2C1=O`, -94.7%; under `CC(C)CN1CC[C@@]2(CCCN(C(=O)Oc3ccccc3)C2)C1`, 23.2%.

As for `CC(C)[C@H](CO)Nc1nc(Nc2cccc(Cl)c2)c2ncn(C(C)C)c2n1`, the max response is -59.9%. Take `NCCc1c[nH]c2ccc(O)cc12`: the max response is -83.3%. As to `O=C(/C=C\c1ccc(Cl)cc1)N[C@@]12CCC(=O)[C@@H]3Oc4c(O)ccc5c4[C@@]31CCN(CC1CC1)[C@@H]2C5`, the max response came out at 55.1%. In the case of `COc1c2c(c(CC=C(C)C)c3oc(=O)c(-c4ccc(O)cc4)c(O)c13)OC(C)(C)C=C2` it was 39.2%; in that of `NCC(CC(=O)O)c1ccc(Cl)cc1` (centres undefined), -45.2%; in that of `O=C(Oc1ccccc1)N1CCC2(CC1)CN(Cc1ccncc1)C2`, 31.1%. Under `CN[C@@H]1C[C@H](c2ccc(Cl)c(Cl)c2)c2ccccc21` stands 47.2%. In the case of `O=C(Nc1cccc(F)c1)N1CCCC2(CCN(C(=O)Oc3ccccc3)CC2)C1` it was 11.7%; in that of `CC(C)=CCCC1(C)C=Cc2c(O)c3c(c(CC=C(C)C)c2O1)OC12C(=CC4CC1C(C)(C)OC2(C/C=C(/C)C(=O)O)C4=O)C3=O` (centres undefined), -81.9%; in that of `OCC(O)Cc1ccc2c(c1)OCO2` (centres undefined), 31.7%. Take `COc1cc(CNC(=O)CCCC/C=C\C(C)C)ccc1O`: the max response is 68.8% and 75.4%. Under `Cc1[nH]c2ccc(O)cc2c1CCN` stands 40.9%; under `c1csc(CN2CCCC3(CCNCC3)C2)n1`, 31.1%.

In the case of `CN1[C@@H]2CC[C@H]1CC(OC(c1ccc(F)cc1)c1ccc(F)cc1)C2` (some centres undefined), the max response was 29.8%. In the case of `CCCN1CCC[C@@H](c2cccc(C#N)c2)C1` it was 18%; in that of `CC[C@@H]1CN2CCc3cc(OC)c(OC)cc3[C@@H]2C[C@@H]1C[C@H]1NCCc2cc(OC)c(OC)cc21`, 11.5%; in that of `Cc1ccc2oc(-c3ccccc3)cc(=O)c2c1`, 173%. In the case of `COc1cc2c(cc1OC)-c1c(OC)c(OC)c(CO)c3c1C(C2)N(C)CC3` (centres undefined) it was 122%; in that of `O=C(Cc1ccc(Cl)c(Cl)c1)N1CCCC[C@H]1CN1CCCC1`, 67.2%. For the compound `O=C1CCc2c(ccc3ccccc23)O1`, the max response worked out at 73.6%.

For the origin of these results see PubChem BioAssay (NCATS).
